{
  "source": "PubChem BioAssay AID1347073",
  "about": "(National Center for Advancing Translational Sciences (NCATS), 2019)",
  "note": "Among all 45,000 compounds or so, about 200 (0.44%) were called active. Another 7% or so got no clear call; they are omitted. The call rests on the fitted dose curve; in most records, active means well fitted activation curve with a large enough effect; inconclusive means small, poorly fitted or top-dose-only effect; inactive means no such curve, though single readings can be large or run the other way. This is one part of the list.",
  "data": [
    {"test": "qHTS of TDP-43 Inhibitors: NCGC Sytravon Library Screen; further: 0% is about no effect; nearly all actives have a fitted effect of over 55% in size", "settings": "yeast TDP-43 toxicity rescue, BacTiter-Glo growth, 24 h; series mostly up to 46.1 µM; growth rescue (activation): at the top concentration", "method_in_brief": "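TDP-43-expressing yeast, pregrown in raffinose, seeded at OD600 0.02 in galactose medium with compound for 24 hr at 30 deg C. Growth read by BacTiter-Glo luminescence, so rescue of toxicity appears as activation.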", "values": [
      {"smiles": "Cc1ccc(Sc2ncccc2C(=O)NC2CCCCCC2)cc1C", "growth rescue (activation)": "inactive: 7.43%"},
      {"smiles": "CCN(CC)S(=O)(=O)c1ccc(N2CCOCC2)c(NC(=O)c2cccc(C#N)c2)c1", "growth rescue (activation)": "inactive: -3.92%"},
      {"smiles": "CCOc1ccccc1NC(=O)c1c(NC(=O)c2ccccc2C)sc2c1CCC(C)C2", "note": "(centres undefined)", "growth rescue (activation)": "inactive: 2.66%"},
      {"smiles": "CCOC(=O)c1ccc(S(=O)(=O)NNC(=O)COc2ccc(C)cc2)cc1", "growth rescue (activation)": "inactive: 11.9%"},
      {"smiles": "CC(NC(=O)CSc1ncccn1)c1ccc2c(c1)OCO2", "note": "(centres undefined)", "growth rescue (activation)": "inactive: 21.5%"},
      {"smiles": "Cc1c(Cl)cccc1NC(=O)CSc1nncn1-c1ccccn1", "growth rescue (activation)": "inactive: 12.2%"},
      {"smiles": "Cc1ccc(C(=O)N(Cc2ccc(N(C)C)cc2)Cc2ccco2)cc1", "growth rescue (activation)": "inactive: 5.75%"},
      {"smiles": "CCN1CCN(C(=O)Cn2nc(-c3ccc(Cl)cc3)ccc2=O)CC1", "growth rescue (activation)": "inactive: -26.8%"},
      {"smiles": "COc1ccccc1/C=C1\\SC(=S)N(N2C(=O)CCCC2=O)C1=O", "growth rescue (activation)": "inactive: 7.03%"},
      {"smiles": "COc1ccc(C2Nc3ccccc3C(=O)N2Cc2ccco2)cc1CN1C(=O)c2ccccc2C1=O", "note": "(centres undefined)", "growth rescue (activation)": "inactive: 9.35%"},
      {"smiles": "O=C(Nc1ccc(N2CCOCC2)cc1)c1cccc(S(=O)(=O)N2CCCCC2)c1", "growth rescue (activation)": "inactive: 25.7%"},
      {"smiles": "COc1nc(-c2ccccc2)ncc1S(=O)(=O)c1ccccc1", "growth rescue (activation)": "inactive: 1.31%"},
      {"smiles": "O=C(Nc1cccc(F)c1)Nc1ccc2c(c1)C(=O)OC2", "growth rescue (activation)": "inactive: 10.1%"},
      {"smiles": "COc1ccc(NC(=O)c2cc3c(CO)cnc(C)c3oc2=Nc2cccc(C)c2)c(OC)c1", "growth rescue (activation)": "inactive: -0.806%"},
      {"smiles": "CS(=O)(=O)N(CC(=O)N1CCCCC1)Cc1ccccc1", "growth rescue (activation)": "inactive: -13.5%"},
      {"smiles": "CCOC(=O)c1c(C)[nH]c(C(=O)N/N=C/c2cc([N+](=O)[O-])ccc2O)c1C", "growth rescue (activation)": "inactive: -2.77%"},
      {"smiles": "COc1ccc(/C=C/c2nnc(NC(=O)COc3cccc(C)c3)s2)cc1", "growth rescue (activation)": "inactive: -29.7%"},
      {"smiles": "CC(C)(C)SCCNC(=O)CN(c1ccccc1)S(=O)(=O)c1ccccc1", "growth rescue (activation)": "inactive: 14.8%"},
      {"smiles": "CCN1CCCC1CNC(=O)CN(C)S(=O)(=O)c1ccc(Cl)cc1", "note": "(centres undefined)", "growth rescue (activation)": "inactive: -3.46%"},
      {"smiles": "COc1ccccc1CNC(=O)N1CCN(c2ccccc2Cl)CC1", "growth rescue (activation)": "inactive: 4.67%"},
      {"smiles": "Cc1cccc2cncc(OCc3nnc(SC(F)F)n3C)c12", "growth rescue (activation)": "inactive: -18.8%"},
      {"smiles": "O=S(=O)(c1cccs1)N1CCN(c2ccccc2Cl)CC1", "growth rescue (activation)": "inactive: -26%"},
      {"smiles": "CCCc1cc(=O)[nH]c(SCc2nc3ccccc3o2)n1", "growth rescue (activation)": "inactive: 18.7%"},
      {"smiles": "COc1cccc(NC(=O)c2ccc(NC(=O)C(C)(C)C)cc2)c1", "growth rescue (activation)": "inactive: -6.6%"},
      {"smiles": "Cc1cc(F)ccc1S(=O)(=O)N(CC(=O)N1CCOCC1)CC(=O)N1CCOCC1", "growth rescue (activation)": "inactive: -3.77%"},
      {"smiles": "Cc1cc(Cn2nnnc2-c2ccncc2)cc(C)c1O", "growth rescue (activation)": "inactive: -3.61%"},
      {"smiles": "CNc1ccc(C(=O)OCC(=O)NC(=O)NC2CCCCC2)cc1[N+](=O)[O-]", "growth rescue (activation)": "inactive: 2.21%"},
      {"smiles": "CC1(C(=O)Nc2ccc3c(c2)OCCO3)CCN1C(=O)CC1CCCC1", "note": "(centres undefined)", "growth rescue (activation)": "inactive: 23%"},
      {"smiles": "Cc1ccc(NC(=O)c2c(C)nc3ccccn23)cc1C", "growth rescue (activation)": "inactive: 4.58%"},
      {"smiles": "COc1cc(C(=O)NCCN=C2NS(=O)(=O)c3ccccc32)cc(OC)c1OC", "growth rescue (activation)": "inactive: -6.79%"},
      {"smiles": "CCOC(=O)c1ccc(NC(=S)NC(=O)c2cncc(Br)c2)cc1", "growth rescue (activation)": "inactive: -20.7%"},
      {"smiles": "Cc1nc(Cl)c(S(N)(=O)=O)c(C)c1Cl", "growth rescue (activation)": "inactive: 17.9%"},
      {"smiles": "Cc1ccc(S(=O)(=O)c2cc3c(=O)n4cccc(C)c4nc3n(CC3CCCO3)c2=N)cc1C", "note": "(centres undefined)", "growth rescue (activation)": "inactive: -5.56%"},
      {"smiles": "CCN(CC)CCNC(=O)c1ccc(Cn2c(=O)c3cccn3c3cccnc32)cc1", "growth rescue (activation)": "inactive: 2.4%"},
      {"smiles": "CC(C)N1CCN(C2CSCCSC2)CC1CCO", "note": "(centres undefined)", "growth rescue (activation)": "inactive: -10.3%"},
      {"smiles": "NC(=O)c1ccsc1NC(=O)COC(=O)/C=C/c1ccccc1[N+](=O)[O-]", "growth rescue (activation)": "inactive: 0.7%"},
      {"smiles": "Cc1[nH]cc(Br)c(=O)c1Oc1ncc(C(F)(F)F)cc1Cl", "growth rescue (activation)": "inactive: -1.41%"},
      {"smiles": "COc1cc2c(cc1NC(=O)/C=C/c1cc(OC)c(OC)c(OC)c1)oc1ccccc12", "growth rescue (activation)": "inactive: 17.2%"},
      {"smiles": "CCc1ccc(C(=O)COC(=O)c2ccc(Cl)nc2)cc1", "growth rescue (activation)": "inactive: -5.53%"},
      {"smiles": "C=CCn1c(SCC(=O)NC2CCCc3ccccc32)nnc1-c1ccncc1", "note": "(centres undefined)", "growth rescue (activation)": "inactive: 10.9%"},
      {"smiles": "COc1ccc(CCNC(=O)CN(c2cc(OC)ccc2OC)S(=O)(=O)c2ccccc2)cc1", "growth rescue (activation)": "inactive: 1.79%"},
      {"smiles": "CCC(C)N=C1CC(C)(C)CC(=O)/C1=C(/O)Cc1ccccc1", "note": "(centres undefined)", "growth rescue (activation)": "inactive: 6.81%"},
      {"smiles": "CC(=O)OCC(=O)N1CCN(c2ccc([N+](=O)[O-])cc2)CC1", "growth rescue (activation)": "inactive: 21.2%"},
      {"smiles": "CC(=O)Oc1ccc2c(=O)c(Oc3ccccc3)c(C)oc2c1OC(C)=O", "growth rescue (activation)": "inactive: 1.4%"},
      {"smiles": "CC#CC[N+](C)(C)CCCCCC", "growth rescue (activation)": "inactive: 13.5%"},
      {"smiles": "COc1ccc(C)cc1NC(=O)c1sc2nc(C)nc(N3CCOCC3)c2c1C", "growth rescue (activation)": "inactive: 8.23%"},
      {"smiles": "CC(CNC(=O)c1ccco1)NC(=O)c1ccco1", "note": "(centres undefined)", "growth rescue (activation)": "inactive: 2.05%"},
      {"smiles": "COc1ccc(CCNC(=O)C2CCN(S(=O)(=O)c3cccs3)CC2)cc1OC", "growth rescue (activation)": "inactive: 6.23%"},
      {"smiles": "O=C(NS(=O)(=O)Oc1ccccc1F)OC[C@@H]1CCCN2CCCCC12", "note": "(some centres undefined)", "growth rescue (activation)": "inactive: -29.2%"},
      {"smiles": "COc1ccc(NC(=O)CCCN2C(=O)C3CC=CCC3C2=O)cc1", "note": "(centres undefined)", "growth rescue (activation)": "inactive: 11.8%"},
      {"smiles": "OCCCNc1nc(-c2ccccc2)c2cc(Br)ccc2n1", "growth rescue (activation)": "inactive: 13.5%"},
      {"smiles": "CCC1Oc2ccccc2N(CC(=O)NCC2CCCO2)C1=O", "note": "(centres undefined)", "growth rescue (activation)": "inactive: 5.41%"},
      {"smiles": "O=C(N/C(=C/c1ccc(F)cc1)C(=O)N1CCCC1)c1ccccc1", "growth rescue (activation)": "inactive: 6.97%"},
      {"smiles": "O=C(COc1ccccc1Cl)Nc1ccc(S(=O)(=O)N2CCOCC2)cc1", "growth rescue (activation)": "inactive: 6.55%"},
      {"smiles": "Cc1ccc(C(C(=O)NC2CCCC2)N(C(=O)c2csnn2)c2cccc(F)c2)o1", "note": "(centres undefined)", "growth rescue (activation)": "inactive: 1.94%"},
      {"smiles": "COc1cccc(Cn2cc(N)cn2)c1", "growth rescue (activation)": "inactive: 3.04%"},
      {"smiles": "CCOc1cc(CNn2cnnc2SCC(=O)NC(C)(C)C)ccc1OCC(=O)NC(C)(C)C", "growth rescue (activation)": "inactive: 14.1%"},
      {"smiles": "NC(=S)N=Nc1c(O)[nH]c2cc(F)c(F)cc12", "growth rescue (activation)": "inactive: -17.7%"},
      {"smiles": "CC#CC(=O)N1CCC(CCc2ccccc2)(C(=O)OCC)CC1", "growth rescue (activation)": "inactive: 13.5%"},
      {"smiles": "COc1cc(OC)c(OC)cc1CN1CCCC(C(=O)c2sccc2C)C1", "note": "(centres undefined)", "growth rescue (activation)": "inactive: 11.5%"},
      {"smiles": "CCS(=O)(=O)N1CCN(c2ccc(S(=O)(=O)N3CCOCC3)cc2)CC1", "growth rescue (activation)": "inactive: 4.2%"},
      {"smiles": "Cc1c(O)ccc2c(CN3CCN(C/C=C/c4ccccc4)CC3)cc(=O)oc12", "growth rescue (activation)": "inactive: 4.45%"},
      {"smiles": "Cc1ccc(S(=O)(=O)N(C)C)cc1NC(=O)CCCNC(=O)c1ccc(Cl)cc1", "growth rescue (activation)": "inactive: 9.45%"},
      {"smiles": "CS(=O)(=O)c1ccc(C(=O)N(Cc2ccccc2)c2ccccc2)cc1", "growth rescue (activation)": "inactive: -3.71%"},
      {"smiles": "COc1ccc2c(CC(=O)Nc3ccccc3OC)coc2c1", "growth rescue (activation)": "inactive: 13.2%"},
      {"smiles": "CCOc1cc(CNCC(C)C)c(Cl)cc1OCC(=O)Nc1ccccc1", "growth rescue (activation)": "inactive: 7.99%"},
      {"smiles": "CC(=O)Nc1cncc(-c2cccc(C(=O)NCCN(C)C)c2)n1", "growth rescue (activation)": "inactive: 2.36%"},
      {"smiles": "O=C(OCCCN=C1NS(=O)(=O)c2ccccc21)c1cccs1", "growth rescue (activation)": "inactive: 3.69%"},
      {"smiles": "O=C(O)c1ccc(Cl)c(S(=O)(=O)Nc2ccc(S(=O)(=O)Nc3cccc(Cl)c3)cc2)c1", "growth rescue (activation)": "inactive: -18%"}
    ]}
  ]
}
